Hit rate of the full screen: of about 48,000 compounds, about 450 (0.94%) were called active. Roughly 19% stayed inconclusive and do not appear here. Calls follow the shape of the dose curve; as a rule, active = well fitted inhibition curve with a large enough effect; inconclusive = small, poorly fitted or top-dose-only effect; inactive = no such curve, though single readings can be large or run the other way. This is one part of the list.
Assay: Primary qHTS for Identification of Small Molecule Inhibitors of Huntingtin Promoter Activity; also: nearly all actives have a fitted effect of over 50% in size
Conditions: HEK293 HTT promoter firefly luciferase reporter (activity 0% = vehicle and -100% = no light), 24 h; series mostly up to 57.5 µM; activity change, negative = inhibition: at the top concentration
In short: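 HEK293 luciferase promoter-reporter cells (2,500/well) plated 24 h, then compounds added at up to 57.5 uM final for 24 h at 37 °C. Firefly luminescence by Dual-Glo, normalized to vehicle (0%) and zero RLU (-100%).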

Activity change, negative = inhibition, inactive:
O=C(NCCc1csc(-c2cccc(F)c2)n1)C(=O)Nc1cc(F)ccc1F -1.21%
COc1cccc(CNC(=O)C2CCN(S(=O)(=O)c3c(C)noc3/C=C/c3cccs3)CC2)c1 -30%
Cc1ccc(C)c(NC(=O)Cc2coc3cc(C)cc(C)c23)c1 -15.6%
O=C(c1cc2ccc3cccnc3c2[nH]1)N1CCCCC1 -49.6%
CCc1ccccc1NC(=O)Cn1nnc2sc3c(c2c1=O)CCC(C(C)(C)C)C3 (stereo not drawn) -19.5%
COc1ccc(C)cc1NS(=O)(=O)c1cnc(N)nc1 -3.32%
CCOC(=O)c1sc2ncn(CC(=O)Nc3cc(Cl)ccc3C)c(=O)c2c1C 2.69%
CCOC(=O)c1cc2c(=O)n3ccccc3nc2n(CC2CCCO2)c1=NC(=O)c1ccccc1Br (stereo not drawn) -6.75%
CC(=O)c1ccc(N2CCN(C(=O)c3cc(S(=O)(=O)N4CCCCCC4)cn3C)CC2)cc1 -23.9%
Cc1cccc(NC(=O)CSc2ccc(-c3sc(-c4ccccc4)nc3C)nn2)c1C 4.53%
Cc1cc(C(=O)Nc2c(C)cccc2C)n(-c2ccccc2)n1 -15.6%
O=C(OCc1cc(=O)n2nc(-c3cccs3)sc2n1)c1cccc(F)c1 2.25%
Cc1ccc(S(=O)(=O)c2nnn3c2nc(NC2CCCCCC2)c2sccc23)cc1C -12.6%
CC(C)c1nn2c(=O)cc(COC(=O)C3CCCCC3)nc2s1 -2.33%
CCCOc1cccc(C2c3c(oc4ccc(F)cc4c3=O)C(=O)N2CCCN2CCOCC2)c1 (stereo not drawn) -10.9%
CCCOc1ccc(-c2nonc2NC(=O)c2ccco2)cc1OCCC -29.9%
CC1CCN(C(=O)c2cc3c(=O)n(C)c4cc(Cl)ccc4c3s2)CC1 4.17%
Cc1cc(Br)cc(C)c1NC(=O)c1sc2ncn(Cc3cccc(F)c3)c(=O)c2c1C 1.8%
CCNC(=O)c1ccc(C)c(-n2c(C)nc3cccnc32)c1 -16.2%
Cc1ccc(NC(=O)Cn2c(=O)c3ccc(Cl)cc3n3nncc23)cc1 -14.1%
O=C(Cn1c(-c2cccs2)cc2ccccc21)N1CCN(c2ccc(Cl)cc2)CC1 -10%
COc1cccc(-c2csc(-c3c(N)c(C(=O)c4ccc5c(c4)OCO5)n4ccccc34)n2)c1 -4.03%
CCOc1ccc(C2C(C(=O)Nc3ccccc3)=C(C)Nc3nc(-c4ccccc4)nn32)cc1OC (stereo not drawn) -7.11%
Cc1ccc(S(=O)(=O)NC(=O)NN2CCCCCC2)cc1 8.24%
COc1ccc(-c2cn3c(n2)sc2cc(C(=O)NCCC4=CCCCC4)ccc23)cc1 -0.752%
COc1cccc(OC)c1C(=O)N[C@@H]1C(=O)N2[C@@H]1SC(C)(C)[C@@H]2C(=O)O 9.7%
COc1ccc(OC)c(NC(=O)C(C)n2c(=O)cc(C)c3c(C)nn(-c4ccccc4)c32)c1 (stereo not drawn) 13%
O=c1c2cnn(-c3ccc(F)cc3)c2ncn1Cc1ccccc1Cl -9.18%
Cc1cc(C)n(CCc2nc3c4ccccc4nc(SCc4ccc(F)cc4)n3n2)n1 -16.5%
Cc1ccc(CNC(=O)c2c[nH]c3ccc(S(=O)(=O)N4CCOCC4)cc3c2=O)cc1 0.198%
O=C(NC1CC(=O)N(c2ccc(F)cc2)C1)C1CCCC1 (stereo not drawn) 0.766%
Cc1c(C(=O)Nc2ccc(F)cc2F)oc2c1-c1nn(Cc3c(F)cccc3Cl)cc1CC2 -10.9%
CCOC(=O)c1c(NC(=O)c2ccc(C)cc2)sc2c1CCCCC2 -10.8%
COc1ccc(C)cc1NC(c1nnc(-c2ccccc2)o1)c1ccc(F)cc1Cl (stereo not drawn) -23.9%
CC(=O)c1ccc(S(=O)(=O)Nc2ccc(-c3cn4c(C)csc4n3)cc2)cc1 -3.31%
CCc1ccc(N2CC(c3nnc(NC(=O)c4ccco4)s3)CC2=O)cc1 (stereo not drawn) -15.5%
N#Cc1ccccc1NC(=O)CSc1nc(-c2ccccc2)cc(C(F)(F)F)c1C#N -28%
COc1cc(Cl)c(C)cc1NC(=O)c1cc(S(=O)(=O)N2CCCC2)ccc1F -7.66%
Cc1ccc(Nc2nc(-c3ccccc3)nc3ccccc23)cc1 -28.6%
Cc1cc(NC(=O)c2ccccc2F)ccc1-c1nc2ccccc2s1 49.2%
Cc1ccc(-n2cnc3cc(C(=O)NCCC4=CCCCC4)ccc32)c(C)c1 -25.2%
CCOC(=O)Cc1ccc(NC(=O)N(Cc2ccc(OC)cc2)C2CCN(C(C)=O)CC2)cc1 -13.2%
CCOC(=O)c1c(NC(=O)/C(C#N)=C/c2ccc(OC)cc2)sc2c1CCC2 -3.41%
Cc1cccc(C)c1OCC(=O)N(Cc1ccccc1F)C1CCS(=O)(=O)C1 (stereo not drawn) -6.23%
CCc1ccc(NC(=O)c2sc(-n3nc(C)c(CCC(C)C)c3C)nc2C)cc1 -10.2%
CCn1c2ccccc2c2nnc(N3CCN(c4cccc(Cl)c4)CC3)nc21 6.76%
CCOC(=O)c1c(C)[nH]c(CCC(=O)NCc2ccc(OC)c(OC)c2)c1C 2.51%
CC(Cc1ccc(O)c(O)c1)(NN)C(=O)O (stereo not drawn) 3.39%
COc1ccc(CNC(=O)Cc2c(C)c3cc4c(C)coc4cc3oc2=O)cc1 -9.15%
Cc1ccc(N2CCn3c2nc2c3c(=O)n(C/C=C/c3ccccc3)c(=O)n2C)cc1C 12.4%
CCc1ccc(NC(=O)CCc2c(C)nc3nc(-c4cc(OC)cc(OC)c4)nn3c2C)cc1 -14.1%
Cc1cc(NS(=O)(=O)c2ccc(N)cc2)nc(C)n1 1.19%
COc1ccccc1-c1c(C)nn2c(-c3ccccc3)cc(-c3ccccc3)nc12 -14.8%
CCOc1ccc(C2=NC(c3ccncc3)=Nc3ccc(C)cc3N2)cc1OCC -25.6%
COCc1cc(C)nc2sc(C(=O)Nc3ccccc3O)c(N)c12 59%
Cc1ccc(OCCn2cc(C(=O)c3cccs3)c3ccccc32)cc1 -28.4%
COc1ccccc1NC(=O)C1=C(C)Nc2c(C(=O)Nc3ccc(C)cc3)cnn2C1c1cccc(OC)c1OC (stereo not drawn) 13.7%
Cc1ccccc1NC(=O)c1cc2c(-c3ccccc3)nn(-c3ccccc3)c2s1 -10.9%
Cc1ccsc1/C=C/C1=NCCCN1C 8%
Cc1cccc(N2CCN(C(=O)Cn3nc(C)c4sc5ccccc5c4c3=O)CC2)c1C -4.37%
COc1ccc(CNC(=O)Cn2c(=O)nc(-c3ccccc3)c3cc(Cl)ccc32)cc1OC -4.85%
CCc1ccc(NCc2cc3ccc(OC)cc3n(CC(=O)Nc3ccccc3C)c2=O)cc1 -23.8%
CCCCN(CCCC)CCNC(=O)Cn1nc(CC)n2c(cc3sccc32)c1=O 11%

Reference: PubChem BioAssay AID1508623 (National Center for Advancing Translational Sciences (NCATS), 2021)
